Measurements published in patent publication US11618753B2 (priority 2018, dated 2023).

system: MLKL phosphorylation, HT29-L23 human colorectal adenocarcinoma cells; test: cells; conditions: read-out: pMLKL HCS Cell Assay (IC50, uM)

Row | SMILES | IC50 [µM]
1 | Nc1ncnn2c(-c3ccc(C(F)(F)F)c(C(=O)N[C@@H]4CN(C(=O)C5CCC(F)(F)C5)C[C@@H]4F)c3)cc(C(F)(F)F)c12 (stereo partly drawn) [Example 900, 5-[4-amino-5-(trifluoromethyl)pyrrolo[2,1-f][1,2,4]triazin-7-yl]-N-[(3R,4S)-1-(3,3-difluorocyclopentanecarbonyl)-4-fluoropyrrolidin-3-yl]-2-(trifluoromethyl)benzamide] | 0.023
2 | Cc1cc(F)c(-c2cc(C(F)(F)F)c3c(N)ncnn23)cc1C(=O)N[C@@H]1CN(C(=O)c2ccc(Cl)cc2)C[C@@H]1F [Example 827, 5-[4-amino-5-(trifluoromethyl)pyrrolo[2,1-f][1,2,4]triazin-7-yl]-N-[(3R,4S)-1-(4-chlorobenzoyl)-4-fluoropyrrolidin-3-yl]-4-fluoro-2-methylbenzamide] | 0.0099
3 | CC(C)CC(=O)N1C[C@H](F)[C@H](NC(=O)c2cc(-c3cc(C(F)(F)F)c4c(N)ncnn34)cc(F)c2Cl)C1 [Example 641, 5-[4-amino-5-(trifluoromethyl)pyrrolo[2,1-f][1,2,4]triazin-7-yl]-2-chloro-3-fluoro-N-[(3R,4S)-4-fluoro-1-(3-methylbutanoyl)pyrrolidin-3-yl]benzamide] | 0.0074
4 | COc1ncc(-c2cc(C(F)(F)F)c3c(N)ncnn23)cc1C(=O)N[C@@H]1CN(S(=O)(=O)C2CCS(=O)(=O)C2)C[C@@H]1F (stereo partly drawn) [Example 1481, 5-[4-amino-5-(trifluoromethyl)pyrrolo[2,1-f][1,2,4]triazin-7-yl]-N-[(3R,4S)-1-[(1,1-dioxidotetrahydrothiophen-3-yl)sulfonyl]-4-fluoropyrrolidin-3-yl]-2-methoxypyridine-3-carboxamide] | 0.369
5 | COc1ncc(-c2cc(C(F)(F)F)c3c(N)ncnn23)cc1C(=O)N[C@@H]1CN(C(=O)OC2(C3CC3)CC2)C[C@@H]1F [Example 1433, [1,1′-bi(cyclopropane)]-1-yl (3R,4S)-3-{5-[4-amino-5-(trifluoromethyl)pyrrolo[2,1-f][1,2,4]triazin-7-yl]-2-methoxypyridine-3-amido}-4-fluoropyrrolidine-1-carboxylate] | 0.011
6 | Nc1ncnn2c(-c3ccc(Cl)c(C(=O)N[C@@H]4CN(C(=O)c5ccc(F)cc5F)C[C@@H]4F)c3)cc(C(F)(F)F)c12 [Example 944, 5-[4-amino-5-(trifluoromethyl)pyrrolo[2,1-f][1,2,4]triazin-7-yl]-2-chloro-N-[(3R,4S)-1-(2,4-difluorobenzoyl)-4-fluoropyrrolidin-3-yl]benzamide] | 0.022
7 | COc1ncc(-c2cc(CN3CCC(F)(F)CC3)c3c(N)ncnn23)cc1C(=O)NC1CN(C(=O)OC2CC(F)(F)C2(F)F)C[C@@H]1F (stereo partly drawn) [Example 1537, 2,2,3,3-tetrafluorocyclobutyl (3R,4S)-3-(5-{4-amino-5-[(4,4-difluoropiperidin-1-yl)methyl]pyrrolo[2,1-f][1,2,4]triazin-7-yl}-2-methoxypyridine-3-amido)-4-fluoropyrrolidine-1-carboxylate] | 0.129
8 | Cc1c(F)cc(-c2cc(C(F)(F)F)c3c(N)ncnn23)cc1C(=O)N[C@@H]1CN(C(=O)c2c(F)cncc2F)C[C@@H]1F [Example 1325, 5-[4-amino-5-(trifluoromethyl)pyrrolo-[2,1-f][1,2,4]triazin-7-yl]-N-[(3R,4S)-1-(3,5-difluoropyridine-4-carbonyl)-4-fluoropyrrolidin-3-yl]-3-fluoro-2-methylbenzamide] | 0.0029
9 | COc1ncc(-c2cc(CN3CCC(F)(F)CC3)c3c(N)ncnn23)cc1C(=O)N[C@@H]1CN(C(=O)CC(C)(O)C(F)(F)F)C[C@@H]1F (stereo partly drawn) [Example 1246, 5-{4-amino-5-[(4,4-difluoropiperidin-1-yl)methyl]pyrrolo[2,1-f][1,2,4]triazin-7-yl}-N-[(3R,4S)-4-fluoro-1-(4,4,4-trifluoro-3-hydroxy-3-methylbutanoyl)pyrrolidin-3-yl]-2-methoxypyridine-3-carboxamide] | 0.00072
10 | COc1ncc(-c2cc(C(F)(F)F)c3c(N)ncnn23)cc1C(=O)NCC1CCCOC1c1ccccc1 (stereo not shown) [Example 128, 5-[4-amino-5-(trifluoromethyl)pyrrolo[2,1-f][1,2,4]triazin-7-yl]-2-methoxy-N-[(2-phenyloxan-3-yl)methyl]pyridine-3-carboxamide] | 0.313
11 | COc1ncc(-c2cc(C(F)(F)F)c3c(N)ncnn23)cc1C(=O)Nc1ncn(Cc2ccccc2)c1C [Example 1796, 5-(4-amino-5-(trifluoromethyl)pyrrolo[2,1-f][1,2,4]triazin-7-yl)-N-(1-benzyl-5-methyl-1H-imidazol-4-yl)-2-methoxynicotinamide] | 0.243
12 | COc1ncc(-c2cc(C(F)(F)F)c3c(N)ncnn23)cc1C(=O)N[C@@H]1CN(C2CC(C)c3ccccc32)C[C@@H]1F (stereo partly drawn) [Example 1353, 5-(4-Amino-5-(trifluoromethyl)pyrrolo[2,1-f][1,2,4]triazin-7-yl)-N-((3R,4S)-4-fluoro-1-(3-methyl-2,3-dihydro-1H-inden-1-yl)pyrrolidin-3-yl)-2-methoxynicotinamide] | 0.288
13 | CCCC(N)(C(=O)N1CC(NC(=O)c2cc(-c3cc(C(F)(F)F)c4c(N)ncnn34)cnc2OC)[C@@H](F)C1)C(F)(F)F (single isomer, unassigned) [Example 1545] | 0.021
14 | Nc1ncnn2c(-c3cc(F)c(Cl)c(C(=O)N[C@@H]4CN(C(=O)C5CC5(F)F)C[C@@H]4F)c3)cc(C(F)(F)F)c12 (stereo partly drawn) [Example 631, 5-[4-amino-5-(trifluoromethyl)pyrrolo[2,1-f][1,2,4]triazin-7-yl]-2-chloro-N-[(3R,4S)-1-(2,2-difluorocyclopropanecarbonyl)-4-fluoropyrrolidin-3-yl]-3-fluorobenzamide] | 0.0066
15 | COc1ncc(-c2cc(CN3CC(C(F)(F)F)C3)c3c(N)ncnn23)cc1C(=O)N[C@@H]1CN(C(=O)C2CC(F)(F)C2)C[C@@H]1F [Example 1552, 5-(4-amino-5-{[3-(trifluoromethyl)azetidin-1-yl]methyl}pyrrolo[2,1-f][1,2,4]triazin-7-yl)-N-[(3R,4S)-1-(3,3-difluorocyclobutanecarbonyl)-4-fluoropyrrolidin-3-yl]-2-methoxypyridine-3-carboxamide] | 0.0097
16 | COc1ncc(-c2cc(CN3CCC(F)(F)CC3)c3c(N)ncnn23)cc1C(=O)N[C@@H]1CN(C(=O)c2ccncc2F)C[C@@H]1F [Example 1250, 5-{4-amino-5-[(4,4-difluoropiperidin-1-yl)methyl]pyrrolo[2,1-f][1,2,4]triazin-7-yl}-N-[(3R,4S)-4-fluoro-1-(3-fluoropyridine-4-carbonyl)pyrrolidin-3-yl]-2-methoxypyridine-3-carboxamide] | 0.0015
17 | COc1ncc(-c2cc(CN3CCC(F)(F)CC3)c3c(N)ncnn23)cc1C(=O)NC1CN(C(=O)OC(C(C)(C)C)C(F)(F)F)C[C@@H]1F (stereo partly drawn) [Example 1539, 1,1,1-trifluoro-3,3-dimethylbutan-2-yl (3R,4S)-3-(5-{4-amino-5-[(4,4-difluoropiperidin-1-yl)methyl]pyrrolo[2,1-f][1,2,4]triazin-7-yl}-2-methoxypyridine-3-amido)-4-fluoropyrrolidine-1-carboxylate] | 0.446
18 | COc1ncc(-c2cc(C(F)(F)F)c3c(N)ncnn23)cc1C(=O)NCc1ccccc1Oc1ccccc1 [Example 1352, 5-[4-amino-5-(trifluoromethyl)pyrrolo[2,1-f][1,2,4]triazin-7-yl]-2-methoxy-N-[(2-phenoxyphenyl)methyl]pyridine-3-carboxamide] | 0.073
19 | CCc1ccc(-c2cc(C(F)(F)F)c3c(N)ncnn23)cc1C(=O)N[C@@H]1CN(C(=O)C2(F)CC2)C[C@@H]1F [Example 970, 5-[4-amino-5-(trifluoromethyl)pyrrolo[2,1-f][1,2,4]triazin-7-yl]-2-ethyl-N-[(3R,4S)-4-fluoro-1-(1-fluorocyclopropanecarbonyl)pyrrolidin-3-yl]benzamide] | 0.0093
20 | Cc1c(F)cc(-c2cc(C(F)(F)F)c3c(N)ncnn23)cc1C(=O)N[C@@H]1CN(C(=O)CC(C(F)(F)F)C(F)(F)F)C[C@@H]1F [Example 1320, 5-[4-amino-5-(trifluoromethyl)pyrrolo-[2,1-f][1,2,4]triazin-7-yl]-3-fluoro-N-[(3R,4S)-4-fluoro-1-[4,4,4-trifluoro-3-(trifluoromethyl)butanoyl]pyrrolidin-3-yl]-2-methylbenzamide] | 0.0018
21 | COc1ncc(-c2cc(C(F)(F)F)c3c(N)ncnn23)cc1C(=O)Nc1cnn(C(C)c2ccc(F)cc2)c1 (stereo not shown) [Example 1776, 5-(4-amino-5-(trifluoromethyl)pyrrolo[2,1-f][1,2,4]triazin-7-yl)-N-(1-(1-(4-fluorophenyl)ethyl)-1H-pyrazol-4-yl)-2-methoxynicotinamide] | 0.00074
22 | CC(CC(=O)N1C[C@H](F)[C@H](NC(=O)c2cc(-c3cc(CN4CCC(C(F)(F)F)CC4)c4c(N)ncnn34)ccc2Cl)C1)C(F)(F)F (stereo partly drawn) [Example 1150, 5-(4-amino-5-{[4-(trifluoromethyl)piperidin-1-yl]methyl}pyrrolo[2,1-f][1,2,4]triazin-7-yl)-2-chloro-N-[(3R,4S)-4-fluoro-1-(4,4,4-trifluoro-3-methylbutanoyl)pyrrolidin-3-yl]benzamide] | 0.0013
23 | Nc1ncnn2c(-c3ccc(Cl)c(C(=O)N[C@@H]4CN(C(=O)C5CCC(F)(F)CC5)C[C@@H]4F)c3)cc(C(F)(F)F)c12 [Example 938, 5-[4-amino-5-(trifluoromethyl)pyrrolo[2,1-f][1,2,4]triazin-7-yl]-2-chloro-N-[(3R,4S)-1-(4,4-difluorocyclohexanecarbonyl)-4-fluoropyrrolidin-3-yl]benzamide] | 0.015
24 | Cc1cc(-c2cc(C(F)(F)F)c3c(N)ncnn23)cc(C(=O)N[C@@H]2CN(C(=O)CC(C(F)(F)F)C(F)(F)F)C[C@@H]2F)c1Cl [Example 709, 5-[4-amino-5-(trifluoromethyl)pyrrolo[2,1-f][1,2,4]triazin-7-yl]-2-chloro-N-[(3R,4S)-4-fluoro-1-[4,4,4-trifluoro-3-(trifluoromethyl)butanoyl]pyrrolidin-3-yl]-3-methylbenzamide] | 0.0044
25 | Nc1ncnn2c(-c3cc(C(=O)N[C@@H]4CN(C(=O)CC(F)(F)F)C[C@@H]4F)c(Cl)cc3F)cc(C(F)(F)F)c12 [Example 403, 5-[4-amino-5-(trifluoromethyl)pyrrolo[2,1-f][1,2,4]triazin-7-yl]-2-chloro-4-fluoro-N-[(3R,4S)-4-fluoro-1-(3,3,3-trifluoropropanoyl)pyrrolidin-3-yl]benzamide] | 0.025
